Source: article PMC7722873 (Scientific Reports, 2020)

Conditions: G8 compared with G5 (Fig. 1B)

In the case of FQVVKFRFWVWWFRWR [G8], the Cytotoxicity is reported as “lower cytotoxicity”.
